Laboratory results: PubChem BioAssay AID624255 (Broad Institute, 2012)
In all, about 77,000 compounds went through this assay and about 4,600 (6%) were called active. The inconclusive results got no clear call from the source; some entries with a clear call stand among them for comparison.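 The calls were made as follows: active = mean inhibition above about 93%, with at least 55% of replicates each passing it (limit read from the data, passing the limit was not always enough); inconclusive = only one of those two conditions holds; inactive = neither condition holds.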

experiment: T. cruzi intracellular proliferation inhibitors, primary screen, cell-based, beta-gal Tulahuen parasites, NIH3T3 host, luminescence (AID 624255); settings: T. cruzi beta-gal in NIH3T3, GalScreen luminescence, 90 h; at 8.34 µM; active compounds read high

| Compound | inhibition |
| --- | --- |
| C[C@@H]1CN([C@H](C)CO)C(=O)c2cc(NS(=O)(=O)c3ccc(Cl)cc3)ccc2O[C@@H](C)CCCCO[C@@H]1CN(C)S(=O)(=O)c1ccc(Cl)cc1 | inconclusive: 96.5% |
| C[C@H]1CN([C@@H](C)CO)S(=O)(=O)c2ccc(-c3ccccc3)cc2O[C@H]1CN(C)S(=O)(=O)c1ccccc1F | active: 119% |
| O=C(Nc1ccccc1)N1CCCCN2[C@@H](CO)[C@@H](c3ccc(-c4ccncc4)cc3)[C@@H]2C1 | inconclusive: 95.4% |
| C[C@H](CO)N1C[C@H](C)[C@@H](CN(C)Cc2ccc(Cl)c(Cl)c2)Oc2ccc(N(C)C)cc2C1=O | inactive: 81.4% |
| Cc1ccc(S(=O)(=O)Nc2ccc3c(c2)C(=O)N([C@@H](C)CO)C[C@@H](C)[C@@H](CN(C)Cc2ccccc2)OCCCC[C@@H](C)O3)cc1 | inconclusive: 111% |
| COCCN(C[C@H]1[C@@H](c2ccccc2)[C@H](CO)N1C(C)=O)C(=O)c1ccncc1 | inconclusive: 99% |
| C[C@H](CO)N1C[C@H](C)[C@@H](CN(C)Cc2ccncc2)Oc2cc(Br)ccc2S1(=O)=O | inconclusive: 95.4% |
| C[C@@H]1CCCCO[C@H](CN(C)CC2CCCCC2)[C@H](C)CN([C@@H](C)CO)C(=O)c2cc(NC(=O)Nc3ccc(C(F)(F)F)cc3)ccc2O1 | inconclusive: 92.6% |
| O=C(NCC1CCCCC1)[C@@H]1N[C@@H]2c3ccc(C4=CCCC4)c(=O)n3C[C@@H]2[C@H]1CO | inactive: 26.6% |
| C[C@H](CO)N1C[C@H](C)[C@H](CN(C)Cc2ccc(C(F)(F)F)cc2)Oc2c(NC(=O)c3ccncc3)cccc2C1=O | inconclusive: 95.1% |
| O=C(Nc1nccs1)[C@H]1[C@H](CO)[C@H]2Cn3c(ccc(-c4cccnc4)c3=O)[C@H]2N1CC1CCCC1 | inconclusive: 95.4% |
| COc1ccccc1CNC(=O)C[C@@H]1CC[C@@H](NC(C)=O)[C@H](CO)O1 | inconclusive: 130% |
| Cc1noc(C)c1S(=O)(=O)Nc1ccc2c(c1)C(=O)N([C@H](C)CO)C[C@@H](C)[C@H](CN(C)C(=O)CCCN(C)C)OCCCC[C@@H](C)O2 | inactive: 24.7% |
| OC[C@@H]1[C@@H](c2ccc(/C=C/c3ccccc3)cc2)[C@@H]2CN(Cc3cccnc3)CCCCN12 | inconclusive: 97.4% |
| CCCN(C)C[C@@H]1OCCCC[C@H](C)Oc2ccc(NC(=O)CCCN(C)C)cc2C(=O)N([C@@H](C)CO)C[C@@H]1C | inconclusive: 96.5% |
| COc1ccc(NC(=O)Nc2ccc3c(c2)C(=O)N([C@H](C)CO)C[C@H](C)[C@@H](CN(C)Cc2ccc4c(c2)OCO4)OCCCC[C@H](C)O3)cc1 | inconclusive: 101% |
| CC(=O)N(C)C[C@H]1Oc2cc(C#CC3CCCC3)ccc2S(=O)(=O)N([C@@H](C)CO)C[C@H]1C | inactive: 55.8% |
| C[C@@H]1CN([C@@H](C)CO)C(=O)CCCn2nncc2CO[C@H]1CN(C)Cc1ccc(C(=O)Nc2ccccc2N)cc1 | active: 110% |
| CC(C)CC#Cc1ccc([C@@H]2[C@@H](CO)N3CCCCN(C(=O)Nc4ccccc4)C[C@H]23)cc1 | inconclusive: 97.9% |
| C[C@@H]1CN([C@@H](C)CO)C(=O)c2cc(NC(=O)Nc3cccc4ccccc34)ccc2O[C@@H](C)CCCCO[C@@H]1CN(C)Cc1ccc(C(F)(F)F)cc1 | inconclusive: 119% |

| Compound | inhibition |
| --- | --- |
| CC1C=NC(S(=O)(=O)N2CC[C@@H]3[C@H]2c2cc(-c4cccc(F)c4)ccc2N(C)[C@H]3CO)=N1 (stereo partly drawn) | inconclusive: 96.4% |
| COCC#Cc1ccc2c(c1)O[C@@H](CN(C)CC1CCCCC1)[C@H](C)CN([C@@H](C)CO)S2(=O)=O | inconclusive: 121% |
| O=C(C[C@@H]1CC[C@H](NS(=O)(=O)c2ccccc2)[C@H](CO)O1)NCc1ccccc1F | inactive: 38.5% |
| CCNC(=O)C[C@H]1CC[C@@H]2[C@H](COc3ccc(NC(=O)C4CCOCC4)cc3C(=O)N2C)O1 | inactive: 32.7% |
| C[C@@H]1CCCCO[C@@H](CN(C)S(C)(=O)=O)[C@H](C)CN([C@H](C)CO)C(=O)c2cc(NC(=O)c3ccccc3)ccc2O1 | inactive: 28.9% |
| C[C@H](CO)N1C[C@H](C)[C@H](CN(C)C(=O)C2CCC2)Oc2ncc(C#CC3(O)CCCC3)cc2C1=O | inactive: 57.9% |
| O=C(Nc1cccc(Cl)c1)N[C@@H]1CC[C@@H](CCn2cc(Cc3ccccc3)nn2)O[C@@H]1CO | inconclusive: 97.1% |
| O=C(C1CCCC1)N1CCCCN2[C@H](CO)[C@@H](c3ccc(-c4ccncc4)cc3)[C@H]2C1 | inconclusive: 98.3% |
| C[C@@H]1CN([C@@H](C)CO)C(=O)Cc2cc(NC(=O)C3CC3)ccc2O[C@@H]1CN(C)Cc1ccc2c(c1)OCO2 | inactive: 42.3% |
| CCN1[C@@H]2c3ccc(C4=CCCCC4)c(=O)n3C[C@@H]2[C@@H](CO)[C@@H]1C(=O)OC | active: 96.9% |
| CNC[C@H]1Oc2cc(C#CCC3CCCC3)ccc2S(=O)(=O)N([C@H](C)CO)C[C@@H]1C | inconclusive: 103% |
| Cc1noc(C)c1NC(=O)Nc1ccc2c(c1)C(=O)N([C@H](C)CO)C[C@H](C)[C@@H](CN(C)C(=O)c1ccccc1)OCCCC[C@@H](C)O2 | inactive: -55.8% |
| C[C@H](CO)N1C[C@H](C)[C@@H](CN(C)C)Oc2ncc(-c3ccccc3)cc2C1=O | inactive: 12.2% |
| C[C@@H]1CN([C@H](C)CO)C(=O)c2cc(C#Cc3ccccc3F)cnc2O[C@@H]1CN(C)S(=O)(=O)c1ccccc1 | active: 116% |
| C[C@H]1CN([C@@H](C)CO)C(=O)CCCn2nncc2CO[C@H]1CN(C)Cc1cccc2c1OCCCO2 | inactive: 5.96% |
| C[C@H]1CN([C@@H](C)CO)C(=O)c2cc(C3=CCCC3)cnc2O[C@H]1CN(C)Cc1ccccc1 | inactive: 26% |
| C[C@@H]1CN([C@H](C)CO)C(=O)c2cc(NC(=O)Nc3ccc(C(F)(F)F)cc3)ccc2O[C@@H]1CN(C)S(=O)(=O)c1cccs1 | inconclusive: 96.7% |
| CO[C@H]1CN(C)C(=O)c2ccc(NC(=O)C3CCC3)cc2OC[C@@H](C)N(CC2CCCCC2)C[C@@H]1C | inconclusive: 95.9% |
| C[C@H]1CCCCO[C@@H](CN(C)C)[C@@H](C)CN([C@@H](C)CO)C(=O)c2cc(NS(=O)(=O)c3ccc(F)cc3)ccc2O1 | inactive: -0.566% |
| O=C(Nc1ccc(F)cc1)N1C[C@H]2[C@@H](c3ccccc31)[C@H](CO)N2C(=O)c1ccccc1 | active: 102% |

| Compound | inhibition |
| --- | --- |
| CCCN1[C@H](C(=O)N[C@@H](C)c2ccccc2)[C@@H](CO)[C@@H]2Cn3c(ccc(-c4ccccc4)c3=O)[C@@H]21 | inconclusive: 96.3% |
| CN1c2ccc(-c3ccccc3F)cc2[C@H]2[C@H](CCN2C(=O)c2cccc(F)c2)[C@H]1CO | inconclusive: 90.1% |
| C[C@@H]1CN([C@H](C)CO)C(=O)c2cc(NS(=O)(=O)c3ccc(Cl)cc3)ccc2O[C@@H]1CN(C)Cc1ccc(C(=O)Nc2ccccc2N)cc1 | inconclusive: 96.1% |
| C[C@H](CO)N1C[C@H](C)[C@H](CN(C)S(=O)(=O)c2ccc(F)cc2)OCCCC[C@H](C)Oc2ccc(NS(=O)(=O)c3ccc(Cl)cc3)cc2C1=O | active: 97.6% |
| COc1ccc(S(=O)(=O)N(C)C[C@@H]2Oc3ccc(NC(=O)c4ccncc4)cc3C(=O)N([C@H](C)CO)C[C@@H]2C)cc1 | inactive: 14.2% |
| C[C@H]1CN([C@@H](C)CO)S(=O)(=O)c2ccc(C#CC3(O)CCCC3)cc2O[C@H]1CN(C)C(=O)c1cccnc1 | inactive: 40.7% |
| O=C(NCC[C@H]1CC[C@@H](NC(=O)C2CCC2)[C@H](CO)O1)c1cnccn1 | active: 184% |
| Cc1ccc(S(=O)(=O)Nc2ccc3c(c2)C(=O)N([C@H](C)CO)C[C@H](C)[C@H](CN(C)CC2CC2)OCCCC[C@H](C)O3)cc1 | inconclusive: 95.8% |
| Cc1ccc(S(=O)(=O)Nc2ccc3c(c2)C(=O)N([C@H](C)CO)C[C@@H](C)[C@H](CN(C)S(=O)(=O)c2ccccc2)OCCCC[C@H](C)O3)cc1 | active: 105% |
| CC(C)C#Cc1ccc([C@@H]2[C@@H](CO)N3CCCCN(CC4CC4)C[C@@H]23)cc1 | inconclusive: 98.8% |
| C[C@@H]1CCCCO[C@@H](CN(C)Cc2ccc(C(F)(F)F)cc2)[C@@H](C)CN([C@@H](C)CO)C(=O)c2cc(NC(=O)C3CCCCC3)ccc2O1 | inconclusive: 121% |
| CCCC#Cc1ccc2c(c1)O[C@@H](CN(C)S(=O)(=O)c1cccc(F)c1)[C@@H](C)CN([C@@H](C)CO)S2(=O)=O | active: 121% |
| C[C@@H]1CCCCO[C@@H](CN(C)S(C)(=O)=O)[C@@H](C)CN([C@@H](C)CO)C(=O)c2cc(NS(=O)(=O)c3ccc(Cl)cc3)ccc2O1 | inactive: 46.7% |
| COc1ccc(NC(=O)N(C)C[C@@H]2Oc3c(NC(=O)Nc4ccc(C(F)(F)F)cc4)cccc3C(=O)N([C@@H](C)CO)C[C@@H]2C)cc1 | inactive: -15.6% |
| COc1cccc(CN(C)C[C@H]2OCc3ccccc3-c3ccccc3C(=O)N([C@@H](C)CO)C[C@H]2C)c1 | inconclusive: 96.3% |
| C[C@@H]1CCCCO[C@H](CN(C)S(=O)(=O)c2cccs2)[C@@H](C)CN([C@@H](C)CO)C(=O)c2cc(NC(=O)Nc3ccccc3)ccc2O1 | inconclusive: 97.1% |
| CO[C@H]1CN(C)C(=O)c2ccc(NC(=O)Cc3ccccc3)cc2OC[C@@H](C)N(C(=O)c2ccccc2F)C[C@H]1C | inconclusive: 52% |
| C[C@H](CO)N1C[C@H](C)[C@@H](CN(C)Cc2ccc(C(=O)Nc3ccccc3N)cc2)Oc2c(NC(=O)c3ccncc3)cccc2C1=O | inconclusive: 88.1% |
